# Source: the supplement of paper PMC8728848
# The other results are listed elsewhere or left out.
# B1: rAAL (Agrocybe aegerita), Q6WY08 (protein)
# chain: MQGVNIYNISAGTSVDLAAPVTTGDIVTFFSSALNLNAGAGNPNNTTLNLFAENGAYLLHIAFRLQENVIIFNSRQPDGPWLVEQAVSDVANQFAGIDGKAMVTVFDHGDKYQVVINEKTVIQYTKQISGLTLSLSYNATEETSIFSTVVEAVTYTGLALEHHHHHH
# Columns and labels:
# Experiment in all cases: glycan array binding signal (z-score within array); higher = stronger binding
# Conditions in all cases: glycan notation: IUPAC condensed, linker removed; mutation: R85A
# [1] = biological target: Fuc(a1-3)[Gal3S(b1-4)]GlcNAc
# Method in brief: (§1)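 The Consortium for Functional Glycomics database supplied 3228 glycan arrays, of which those lacking an available protein sequence were dropped. The binding signal, a within-array Z-score, was averaged across arrays of the same protein sequence and across linkers. Negative scores can be read as non-binding.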
# [2] = biological target: Fuc(a1-3)[Gal3S(b1-4)]GlcNAc6S
# Method in brief: as §1
# [3] = biological target: Fuc(a1-3)[GalNAc(b1-4)]GlcNAc
# Method in brief: as §1
# [4] = biological target: Fuc(a1-4)GlcNAc
# Method in brief: as §1
# [5] = biological target: Fuc(b1-3)GlcNAc
# Method in brief: as §1
# [6] = biological target: Gal(a1-2)Gal
# Method in brief: as §1
# [7] = biological target: Gal(a1-3)Gal
# Method in brief: as §1
# [8] = biological target: Gal(a1-3)Gal(b1-3)GlcNAc
# Method in brief: as §1
# [9] = biological target: Gal(a1-3)Gal(b1-3)GlcNAc(b1-2)Man(a1-3)[Gal(a1-3)Gal(b1-3)GlcNAc(b1-2)Man(a1-6)]Man(b1-4)GlcNAc(b1-4)GlcNAc
# Method in brief: as §1
# [10] = biological target: Gal(a1-3)Gal(b1-3)[Fuc(a1-4)]GlcNAc(b1-2)Man(a1-3)[Gal(a1-3)Gal(b1-3)[Fuc(a1-4)]GlcNAc(b1-2)Man(a1-6)]Man(b1-4)GlcNAc(b1-4)GlcNAc
# Method in brief: as §1
# [11] = biological target: Gal(a1-3)Gal(b1-4)Glc
# Method in brief: as §1
# [12] = biological target: Gal(a1-3)Gal(b1-4)GlcNAc
# Method in brief: as §1
# [13] = biological target: Gal(a1-3)Gal(b1-4)GlcNAc(b1-3)GalNAc
# Method in brief: as §1
# [14] = biological target: Gal(a1-3)Gal(b1-4)[Fuc(a1-3)]GlcNAc
# Method in brief: as §1
# [15] = biological target: Gal(a1-3)Gal(b1-4)[Fuc(a1-3)]GlcNAc(b1-2)Man(a1-3)[Gal(a1-3)Gal(b1-4)[Fuc(a1-3)]GlcNAc(b1-2)Man(a1-6)]Man(b1-4)GlcNAc(b1-4)GlcNAc
# Method in brief: as §1
# [16] = biological target: Gal(a1-3)GalNAc
# Method in brief: as §1
# [17] = biological target: Gal(a1-3)[Gal(a1-4)]Gal(b1-4)GlcNAc
# Method in brief: as §1
# [18] = biological target: Gal(a1-4)Gal(b1-3)GlcNAc(b1-2)Man(a1-3)[Gal(a1-4)Gal(b1-3)GlcNAc(b1-2)Man(a1-6)]Man(b1-4)GlcNAc(b1-4)GlcNAc
# Method in brief: as §1
# [19] = biological target: Gal(a1-4)Gal(b1-4)Glc
# Method in brief: as §1
# [20] = biological target: Gal(a1-4)Gal(b1-4)GlcNAc
# Method in brief: as §1
# [21] = biological target: Gal(a1-4)Gal(b1-4)GlcNAc(b1-2)Man(a1-3)[Gal(a1-4)Gal(b1-4)GlcNAc(b1-2)Man(a1-6)]Man(b1-4)GlcNAc(b1-4)GlcNAc
# Method in brief: as §1
# [22] = biological target: Gal(a1-4)Gal(b1-4)GlcNAc(b1-3)Gal(b1-4)Glc
# Method in brief: as §1
# [23] = biological target: Gal(a1-4)GlcNAc
# Method in brief: as §1
# [24] = biological target: Gal(a1-6)Glc
# Method in brief: as §1
# [25] = biological target: Gal(b1-2)Gal
# Method in brief: as §1
# [26] = biological target: Gal(b1-3)Gal
# Method in brief: as §1
# [27] = biological target: Gal(b1-3)Gal(b1-4)GlcNAc
# Method in brief: as §1
# [28] = biological target: Gal(b1-3)Gal(b1-4)GlcNAc(b1-2)Man(a1-3)[Gal(b1-3)Gal(b1-4)GlcNAc(b1-2)Man(a1-6)]Man(b1-4)GlcNAc(b1-4)GlcNAc
# Method in brief: as §1
# [29] = biological target: Gal(b1-3)GalNAc
# Method in brief: as §1
# [30] = biological target: Gal(b1-3)GalNAc(a1-3)[Fuc(a1-2)]Gal(b1-4)Glc
# Method in brief: as §1
# [31] = biological target: Gal(b1-3)GalNAc(a1-3)[Fuc(a1-2)]Gal(b1-4)GlcNAc
# Method in brief: as §1
# [32] = biological target: Gal(b1-3)GalNAc(b1-3)Gal(a1-4)Gal(b1-4)Glc
# Method in brief: as §1
# [33] = biological target: Gal(b1-3)GalNAc(b1-4)Gal(b1-4)Glc
# Method in brief: as §1
# [34] = biological target: Gal(b1-3)GalNAc(b1-4)[Neu5Ac(a2-3)]Gal(b1-4)Glc
# Method in brief: as §1
# [35] = biological target: Gal(b1-3)GlcNAc
# Method in brief: as §1
# [36] = biological target: Gal(b1-3)GlcNAc(a1-6)Gal(b1-4)GlcNAc
# Method in brief: as §1
# [37] = biological target: Gal(b1-3)GlcNAc(b1-2)Man(a1-3)[Gal(b1-3)GlcNAc(b1-2)Man(a1-6)]Man(b1-4)GlcNAc(b1-4)GlcNAc
# Method in brief: as §1
# [38] = biological target: Gal(b1-3)GlcNAc(b1-2)Man(a1-3)[Gal(b1-3)GlcNAc(b1-2)Man(a1-6)]Man(b1-4)GlcNAc(b1-4)[Fuc(a1-6)]GlcNAc
# Method in brief: as §1
# [39] = biological target: Gal(b1-3)GlcNAc(b1-3)Gal(b1-3)GlcNAc
# Method in brief: as §1
# [40] = biological target: Gal(b1-3)GlcNAc(b1-3)Gal(b1-4)Glc
# Method in brief: as §1
# [41] = biological target: Gal(b1-3)GlcNAc(b1-3)Gal(b1-4)GlcNAc
# Method in brief: as §1
# [42] = biological target: Gal(b1-3)GlcNAc(b1-3)Gal(b1-4)GlcNAc(b1-6)[Gal(b1-3)GlcNAc(b1-3)]Gal(b1-4)Glc
# Method in brief: as §1
# [43] = biological target: Gal(b1-3)GlcNAc(b1-3)Gal(b1-4)[Fuc(a1-3)]GlcNAc(b1-6)[Gal(b1-3)GlcNAc(b1-3)]Gal(b1-4)Glc
# Method in brief: as §1
# [44] = biological target: Gal(b1-3)GlcNAc(b1-3)GalNAc
# Method in brief: as §1
# [45] = biological target: Gal(b1-3)GlcNAc(b1-6)Gal(b1-4)GlcNAc
# Method in brief: as §1
binder,measurement,setting,value
B1,glycan array binding signal (z-score),[1],-0.127
same,glycan array binding signal (z-score),[2],-0.11
same,glycan array binding signal (z-score),[3],-0.103
same,glycan array binding signal (z-score),[4],-0.139
same,glycan array binding signal (z-score),[5],-0.12
same,glycan array binding signal (z-score),[6],-0.129
same,glycan array binding signal (z-score),[7],-0.124
same,glycan array binding signal (z-score),[8],0.619
same,glycan array binding signal (z-score),[9],-0.088
same,glycan array binding signal (z-score),[10],-0.111
same,glycan array binding signal (z-score),[11],1.02
same,glycan array binding signal (z-score),[12],-0.051
same,glycan array binding signal (z-score),[13],-0.115
same,glycan array binding signal (z-score),[14],-0.115
same,glycan array binding signal (z-score),[15],-0.125
same,glycan array binding signal (z-score),[16],-0.134
same,glycan array binding signal (z-score),[17],-0.131
same,glycan array binding signal (z-score),[18],-0.118
same,glycan array binding signal (z-score),[19],-0.133
same,glycan array binding signal (z-score),[20],-0.142
same,glycan array binding signal (z-score),[21],-0.144
same,glycan array binding signal (z-score),[22],-0.129
same,glycan array binding signal (z-score),[23],-0.142
same,glycan array binding signal (z-score),[24],-0.142
same,glycan array binding signal (z-score),[25],-0.124
same,glycan array binding signal (z-score),[26],-0.141
same,glycan array binding signal (z-score),[27],-0.067
same,glycan array binding signal (z-score),[28],9.2
same,glycan array binding signal (z-score),[29],-0.119
same,glycan array binding signal (z-score),[30],-0.142
same,glycan array binding signal (z-score),[31],-0.113
same,glycan array binding signal (z-score),[32],-0.103
same,glycan array binding signal (z-score),[33],-0.123
same,glycan array binding signal (z-score),[34],-0.126
same,glycan array binding signal (z-score),[35],-0.115
same,glycan array binding signal (z-score),[36],-0.133
same,glycan array binding signal (z-score),[37],-0.072
same,glycan array binding signal (z-score),[38],-0.109
same,glycan array binding signal (z-score),[39],-0.052
same,glycan array binding signal (z-score),[40],0.01
same,glycan array binding signal (z-score),[41],-0.117
same,glycan array binding signal (z-score),[42],0.051
same,glycan array binding signal (z-score),[43],-0.052
same,glycan array binding signal (z-score),[44],-0.086
same,glycan array binding signal (z-score),[45],-0.106
